Measured values taken from PubChem BioAssay (NCATS).
The list shows a part of the results. These are further read-outs of the screen, such as a control signal, another cell line or another target. No call is given for them. Most of these compounds were active or inconclusive in the main read-out, so they are no random draw. The note in brackets gives the kind of curve behind each potency; many fits are weak.

Assay: qHTS Assay for Lipid Storage Modulators (AID 1519)
Conditions: Drosophila S3 cells, BODIPY lipid droplet/cell ratio, laser cytometry, cells loaded with oleic acid; for AC50: measured here: lipid (BODIPY) channel AC50
Procedure, shortened: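 Cells seeded at 5,000 per well were treated with compounds over a concentration series and loaded with oleic acid (400 uM, as added). Lipid droplet fluorescence (488 nm excitation, 500-530 nm channel) was read by laser-scanning cytometry and normalized to 20 uM Triacsin C.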

[1] = measured here: cell count channel max response
[2] = measured here: lipid channel max response
Tags tell the direction and shape of the fitted curve.

| SMILES | max response [1] | AC50 | max response [2] |
| --- | --- | --- | --- |
| CS(=O)(=O)Nc1cccc(-c2nc(NCc3cccnc3)c3ccccc3n2)c1 | 18.4% | 0.0251 µM [rising, full curve] | 28.9% |
| CNc1ncnc2ccc(-c3ccc4c(c3)OCO4)cc12 | 18.3% | 1.26 µM [rising, full curve, poor fit] | 25% |
| COc1cc2c(cc1OC)-c1cc3ccc(OC)c(OC)c3c[n+]1CC2 | 28.8% | 20 µM [rising, partial curve] | 40.4% |
| COc1cccc(-c2cncnc2NCc2cccc(C)c2)c1 | 18.6% | 3.55 µM [rising, full curve, poor fit] | 27.3% |
| CS(=O)(=O)N1CCC2(CCCN(C(=O)Nc3cccc(F)c3)C2)CC1 | 16% | 0.00794 µM [rising, full curve, poor fit] | 25% |
| CC(=O)[C@]1(O)CCC2C3CC(C)C4=CC(=O)C=CC4(C)[C@@]3(F)C(O)C[C@]21C (some centres not stated) | 24.1% | 39.8 µM [rising, single point] | 45.7% |
| O=C(c1csnn1)N1CCC[C@@]2(CCN(Cc3ccccc3)C2)C1 | 25.4% | 0.0126 µM [rising, full curve, poor fit] | 36.4% |
| CN(C)C(=O)c1ccc(-c2nc(N(C)Cc3ccco3)c3ccccc3n2)cc1 | 14.1% | 1 µM [rising, full curve, poor fit] | 28.7% |
| O=c1c(-c2ccc(F)cc2)nc2cnc(Oc3cccc(Cl)c3)nc2n1C[C@H]1CCCO1 | -6.17% | 39.8 µM [falling, single point] | -47.4% |
